Literature values in paper PMC11181328 (Journal of Medicinal Chemistry, 2024).

Details: same conditions; cited from earlier work

CN(C(=O)/C=C/c1ccoc1)[C@H]1CC[C@@]2(O)[C@H]3Cc4ccc(O)c5c4[C@@]2(CCN3CC2CC2)[C@H]1O5.Cl [NMF]
half-life in human liver S9 fraction: over 60 min
